Data: the supplement of paper PMC4166925
± gives the standard deviation of the averaged measurements. Whole data set: some 33,000 sequences, median “E-score (dimensionless, -0.5 to 0.5)” near -0.046, cut for the highest 2% near 0.36. This is one part of the list.

Each sequence was assayed on T1, SpTbr T-box DNA-binding domain (GST fusion) (assay: PBM E-score of 8-mer (E-score (dimensionless, -0.5 to 0.5)); Tbr is Tbrain of the sea star Patiria miniata (Pm) or the sea urchin Strongylocentrotus purpuratus (Sp); higher = stronger binding preference; most listed sequences are background and not binding sites). Settings: the construct has about 5 more residues each side.
T1 sequence: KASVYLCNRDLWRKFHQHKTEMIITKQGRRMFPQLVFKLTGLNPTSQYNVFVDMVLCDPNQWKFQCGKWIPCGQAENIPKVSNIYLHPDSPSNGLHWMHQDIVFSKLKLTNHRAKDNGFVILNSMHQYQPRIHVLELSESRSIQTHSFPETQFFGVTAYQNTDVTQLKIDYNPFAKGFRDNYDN
In short: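 Each ungapped 8-mer received an enrichment E-score from the Universal PBM Analysis Suite, averaged over duplicate arrays. The proteins were Tbr T-box DNA-binding domains, covering the whole T-box plus about five flanking residues, fused to GST and expressed in BL21 E. coli at 20 °C before glutathione affinity purification. Universal Agilent oligonucleotide arrays were made double-stranded by primer extension and incubated with 200 nM protein in PBS (pH 7.5). The arrays were then scanned and quantified, and every 8-mer was scored from probe intensities.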

Row | Sequence | PBM E-score of 8-mer
1 | ACGATCGC | 0.324 ± 0.026
2 | AGCGAACA | 0.078 ± 0.037
3 | AGGGACAA | -0.0486 ± 0.0021
4 | GTAAAGGA | -0.15 ± 0.099
5 | CACTTGAG | 0.166 ± 0.013
6 | ACCCCCTA | -0.098 ± 0.013
7 | TAAGAGCA | -0.252 ± 0.049
8 | GCGAATCA | 0.205 ± 0.034
9 | GCTTAGAC | -0.168 ± 0.039
10 | CCAAGGCC | -0.186 ± 0.044
11 | ATGAGTGG | 0.00304 ± 0.024
12 | ACGCGCAT | 0.0574 ± 0.044
13 | CAATAAAG | -0.15 ± 0.025
14 | CCCCTGGA | -0.172 ± 0.033
15 | CACGAACA | 0.041 ± 0.016
16 | ATGTTTGA | 0.113 ± 0.12
17 | TCCTGGCA | -0.0332 ± 0.014
18 | CGCCGGGA | -0.0874 ± 0.038
19 | GCGCTCCC | -0.1692 ± 0.00033
20 | CATGTATA | -0.0466 ± 0.034
21 | ATAACGTA | -0.0438 ± 0.038
22 | ATGCTGTG | 0.0749 ± 0.008

Row | Sequence | PBM E-score of 8-mer
23 | CAGATCGC | 0.244 ± 0.017
24 | AGCGGGAG | 0.0455 ± 0.02
25 | ATATCCCC | -0.0385 ± 0.045
26 | GGGTCACC | -0.0559 ± 0.047
27 | AGGGCTAC | -0.0643 ± 0.012
28 | AGCAGCTC | -0.208 ± 0.067
29 | ATGGGTCC | -0.253 ± 0.016
30 | CTTGGTCA | -0.147 ± 0.026
31 | GCACGCTA | 0.0823 ± 0.071
32 | CGCTCATC | -0.112 ± 0.059
33 | GCGGAAGA | 0.0197 ± 0.024
34 | ATTAGGTG | 0.307 ± 0.018
35 | ACAGCTAA | 0.104 ± 0.024
36 | GAACAAGC | -0.0796 ± 0.06
37 | ATCATTAG | -0.164 ± 0.1
38 | GAAAAGCC | -0.0965 ± 0.068
39 | ATCATACA | -0.0785 ± 0.086
40 | ACCTGGTA | -0.0333 ± 0.028
41 | TATGGGCA | -0.132 ± 0.0057
42 | CGCGTGTC | 0.28 ± 0.024
43 | GCGGCCCC | -0.0769 ± 0.0012
44 | TGTTTAAA | -0.168 ± 0.0056

Row | Sequence | PBM E-score of 8-mer
45 | AGGTCAGG | -0.0779 ± 0.035
46 | ATCTGGAC | -0.116 ± 0.035
47 | GGATTTCA | -0.166 ± 0.1
48 | ATTTTAGC | 0.196 ± 0.013
49 | ACAGGGCA | -0.0596 ± 0.039
50 | GTCTTATA | -0.0249 ± 0.1
51 | GGTATTCA | -0.187 ± 0.0041
52 | CACCTGTC | 0.431 ± 0.019
53 | AGCACTCC | -0.0167 ± 0.022
54 | CAGATAAG | -0.0189 ± 0.046
55 | CTGGAACA | -0.189 ± 0.061
56 | GCGCTGCA | 0.0743 ± 0.073
57 | GTCCCGCA | -0.00105 ± 0.02
58 | CGCGCTGC | 0.0949 ± 0.0066
59 | CCCGCTGC | 0.00495 ± 0.0082
60 | AGTTGATA | 0.132 ± 0.059
61 | AGTCACTC | 0.0274 ± 0.044
62 | GACTCACA | 0.313 ± 0.038
63 | CTGAACAG | -0.0231 ± 0.0095
64 | ACGCGAAA | 0.138 ± 0.018
65 | CTCGATCA | 0.0688 ± 0.04
66 | ATCTAGTC | -0.148 ± 0.11

Row | Sequence | PBM E-score of 8-mer
67 | AAAACTGT | 0.105 ± 0.033
68 | AAACTTAC | -0.0103 ± 0.078
69 | AGCTAAAC | -0.185 ± 0.028
70 | CGTCCTCC | -0.263 ± 0.021
71 | CGTTATGA | -0.0163 ± 0.01
72 | AGAGTCGA | 0.0119 ± 0.061
73 | CTGACGAA | 0.041 ± 0.026
74 | ATGGGATC | -0.175 ± 0.018
75 | CCCCACCA | -0.0379 ± 0.0039
76 | GCACTGCA | -0.101 ± 0.021
77 | GACGCTAA | 0.15 ± 0.013
78 | AGCAAACC | -0.13 ± 0.04
79 | ACGGTCCC | -0.006 ± 0.023
80 | CGGTCACG | 0.241 ± 0.054
81 | GCCGGCTA | -0.038 ± 0.068
82 | GTCAGTGA | 0.204 ± 0.022
83 | TCCGATCA | 0.0994 ± 0.032
84 | ACATATAT | -0.0491 ± 0.069
85 | ACGACGGC | -0.0199 ± 0.027
86 | CACTACGG | 0.102 ± 0.022
